# This is one part of the list.
# Tests used:
# Experiment in all cases: glycan array binding signal (z-score within array); higher = stronger binding
# Settings in all cases: glycan notation: IUPAC condensed, linker removed; mutation: R120K
# [1] = target: Gal6S(b1-4)Glc
# Summary of the method: (§1)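 The binding signal is a Z-score computed within each array. Data were drawn from 3228 arrays in the Consortium for Functional Glycomics database, restricted to those with a known protein sequence. Scores were averaged over arrays of the same protein sequence at different concentrations or buffers, and over linkers, and negative values can be taken as non-binding.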
# [2] = target: Gal6S(b1-4)Glc6S
# Summary of the method: as §1
# [3] = target: Gal6S(b1-4)GlcNAc
# Summary of the method: as §1
# [4] = target: Gal6S(b1-4)GlcNAc6S
# Summary of the method: as §1
# [5] = target: GalNAc(a1-3)Gal
# Summary of the method: as §1
# [6] = target: GalNAc(a1-3)GalNAc
# Summary of the method: as §1
# [7] = target: GalNAc(a1-3)GalNAc(b1-3)Gal(a1-4)Gal(b1-4)Glc
# Summary of the method: as §1
# [8] = target: GalNAc(a1-3)GalNAc(b1-3)Gal(a1-4)Gal(b1-4)GlcNAc
# Summary of the method: as §1
# [9] = target: GalNAc(b1-3)Gal
# Summary of the method: as §1
# [10] = target: GalNAc(b1-3)Gal(a1-4)Gal(b1-4)GlcNAc
# Summary of the method: as §1
# [11] = target: GalNAc(b1-3)Gal(a1-4)Gal(b1-4)GlcNAc(b1-3)Gal(b1-4)Glc
# Summary of the method: as §1
# [12] = target: GalNAc(b1-3)Gal(a1-6)Gal(b1-4)Glc
# Summary of the method: as §1
# [13] = target: GalNAc(b1-3)GalNAc
# Summary of the method: as §1
# [14] = target: GalNAc(b1-3)GlcNAc
# Summary of the method: as §1
# [15] = target: GalNAc(b1-4)Gal(b1-4)Glc
# Summary of the method: as §1
# [16] = target: GalNAc(b1-4)GlcNAc
# Summary of the method: as §1
# [17] = target: GalNAc(b1-4)GlcNAc(b1-2)Man
# Summary of the method: as §1
# [18] = target: GalNAc(b1-4)GlcNAc(b1-2)Man(a1-3)[GalNAc(b1-4)GlcNAc(b1-2)Man(a1-6)]Man(b1-4)GlcNAc(b1-4)GlcNAc
# Summary of the method: as §1
# [19] = target: GalNAc(b1-4)GlcNAc(b1-3)GalNAc(b1-4)GlcNAc
# Summary of the method: as §1
# [20] = target: GalNAc(b1-4)GlcNAc6S
# Summary of the method: as §1
# [21] = target: GalNAc(b1-6)GalNAc
# Summary of the method: as §1
# [22] = target: GalNAc3S(b1-4)GlcNAc
# Summary of the method: as §1
# [23] = target: GalNAc3S(b1-4)GlcNAc3S
# Summary of the method: as §1
# [24] = target: GalNAc3S(b1-4)[Fuc(a1-3)]GlcNAc
# Summary of the method: as §1
# [25] = target: GalNAc4S6S(b1-4)GlcNAc
# Summary of the method: as §1
# [26] = target: GalNAc6S(b1-4)GlcNAc
# Summary of the method: as §1
# [27] = target: Glc(a1-4)Glc
# Summary of the method: as §1
# [28] = target: Glc(a1-4)Glc(a1-4)Glc(a1-4)Glc
# Summary of the method: as §1
# [29] = target: Glc(a1-6)Glc(a1-6)Glc
# Summary of the method: as §1
# [30] = target: Glc(a1-6)Glc(a1-6)Glc(a1-6)Glc
# Summary of the method: as §1
# [31] = target: Glc(b1-4)Glc
# Summary of the method: as §1
# [32] = target: Glc(b1-6)Glc
# Summary of the method: as §1
# [33] = target: GlcA(b1-3)Gal
# Summary of the method: as §1
# [34] = target: GlcA(b1-3)GlcNAc
# Summary of the method: as §1
# [35] = target: GlcA(b1-6)Gal
# Summary of the method: as §1
# [36] = target: GlcA3S(b1-3)Gal(b1-4)GlcNAc(b1-2)Man
# Summary of the method: as §1
# [37] = target: GlcA3S(b1-3)Gal(b1-4)GlcNAc(b1-3)Gal(b1-4)Glc
# Summary of the method: as §1
binder,measurement,setting,value
"Siglec-9 (Homo sapiens), Q9Y336 (protein) MLLLLLPLLWGRERAEGQTSKLLTMQSSVTVQEGLCVHVPCSFSYPSHGWIYPGPVVHGYWFREGANTDQDAPVATNNPARAVWEETRDRFHLLGDPHTKNCTLSIRDARRSDAGRYFFKMEKGSIKWNYKHHRLSVNVTALTHRPNILIPGTLESGCPQNLTCSVPWACEQGTPPMISWIGTSVSPLDPSTTRSSVLTLIPQPQDHGTSLTCQVTFPGASVTTNKTVHLNVSYPPQNLTMTVFQGDGTVSTVLGNGSSLSLPEGQSLRLVCAVDAVDSNPPARLSLSWRGLTLCPSQPSNPGVLELPWVHLRDAAEFTCRAQNPLGSQQVYLNVSLQSKATSGVTQGVVGGAGATALVFLSFCVIFVVVRSCRKKSARPAAGVGDTGIEDANAVRGSASQGPLTEPWAEDSPPDQPPPASARSSVGEGELQYASLSFQMVKPWDSRGQEATDTEYSEIKIHR",glycan array binding signal (z-score),[1],-0.159
same,glycan array binding signal (z-score),[2],0.816
same,glycan array binding signal (z-score),[3],-0.636
same,glycan array binding signal (z-score),[4],0.596
same,glycan array binding signal (z-score),[5],0.045
same,glycan array binding signal (z-score),[6],-0.472
same,glycan array binding signal (z-score),[7],-0.517
same,glycan array binding signal (z-score),[8],-0.469
same,glycan array binding signal (z-score),[9],-0.291
same,glycan array binding signal (z-score),[10],-0.172
same,glycan array binding signal (z-score),[11],-0.064
same,glycan array binding signal (z-score),[12],-0.354
same,glycan array binding signal (z-score),[13],-0.48
same,glycan array binding signal (z-score),[14],-0.343
same,glycan array binding signal (z-score),[15],1.78
same,glycan array binding signal (z-score),[16],-0.443
same,glycan array binding signal (z-score),[17],-0.292
same,glycan array binding signal (z-score),[18],-0.384
same,glycan array binding signal (z-score),[19],-0.389
same,glycan array binding signal (z-score),[20],-0.142
same,glycan array binding signal (z-score),[21],-0.358
same,glycan array binding signal (z-score),[22],-0.59
same,glycan array binding signal (z-score),[23],-0.23
same,glycan array binding signal (z-score),[24],-0.228
same,glycan array binding signal (z-score),[25],0.324
same,glycan array binding signal (z-score),[26],-0.304
same,glycan array binding signal (z-score),[27],-0.25
same,glycan array binding signal (z-score),[28],1.27
same,glycan array binding signal (z-score),[29],0.116
same,glycan array binding signal (z-score),[30],0.714
same,glycan array binding signal (z-score),[31],-0.264
same,glycan array binding signal (z-score),[32],0.092
same,glycan array binding signal (z-score),[33],-0.277
same,glycan array binding signal (z-score),[34],-0.179
same,glycan array binding signal (z-score),[35],0.061
same,glycan array binding signal (z-score),[36],0.03
same,glycan array binding signal (z-score),[37],0.216

# Source: the supplement of paper PMC8728848
